# According to the supplement of paper PMC12889115:
# This is one part of the list. Rule as the data show it: active = 25% or less and inactive = the rest. Many values rest on one well or one pass, so single values are uncertain.
# Tested on: Salmonella enterica serovar Typhimurium SL1344
# Test: intramacrophage bacterial GFP load (SAFIRE), percent of DMSO control (% of DMSO); higher = more intracellular bacteria (less inhibition)
# Settings: 25 µM; system: infected RAW 264.7 macrophages
# Description: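 Secondary screen of the 553 primary hits at 25 µM. (i) S. Typhimurium SL1344 grown in Mueller-Hinton broth with 0.5 µg/mL polymyxin B, OD600 read after 18 h. (ii) SAFIRE assay: RAW 264.7 macrophages infected with S. Typhimurium sifB::gfp (MOI 30); compound added 2 h post-infection; cells fixed at 18 h; GFP-positive pixel fraction per macrophage imaged by confocal microscopy and expressed as % of DMSO control.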
# 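Also: compounds tested were the hits of an earlier 50 µM broth growth screen of a drug-like diversity library run with polymyxin B.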
row,SMILES,intramacrophage bacterial GFP load
1,Cc1ccccc1C(NC1CCN(c2ccc(NC(=O)c3ccccc3F)cc2)CC1)c1ccncc1 (stereo unspecified),inactive: 252
2,CN(CCc1ccccn1)C(=O)c1csc2nc(-c3ccc(Cl)cc3)cn12,inactive: 102
3,Cc1ccccc1-c1cnc(-c2ccncc2)nc1C1CCCN(Cc2ccc(F)c(F)c2)C1 (stereo unspecified),active: 13.8
4,CC#CCOc1ccc(CN(C(=O)c2ccccc2OC)C2CCCC2)cc1,inactive: 141
5,Clc1ccc(C2CCCN(Cc3nc(-c4ccccn4)no3)C2)cc1 (stereo unspecified),active: 14.3
6,Cc1cc(C)n(Cc2ccc(C(=O)N(Cc3ccncc3)Cc3cccc(OCCc4ccc(F)cc4)c3)cc2)n1,active: 0.236
